According to PubChem BioAssay AID1508624 (National Center for Advancing Translational Sciences (NCATS), 2021):
Out of some 48,000 compounds screened, about 120 (0.25%) were called active. Another 4% or so got no clear call; they are omitted. The call rests on the fitted dose curve; in most records, active means well fitted activation curve with a large enough effect; inconclusive means small, poorly fitted or top-dose-only effect, or another doubt; inactive means no such curve, though single readings can be large or run the other way. Some of the results follow.

Assay: Primary qHTS for Identification of Small Molecule Activators of Huntingtin-Antisense Promoter Activity; further: nearly all actives have a fitted effect of over 55% in size
Conditions: HEK293 HTT-AS promoter firefly luciferase reporter (activity 0% = vehicle and -100% = no light), 24 h; series mostly up to 57.5 µM; activity change, positive = activation: at the top concentration
Outline: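 Firefly luciferase readout (Dual-Glo, 10 min RT) after 24 h, 37 °C compound exposure (final up to 57.5 uM) of HEK293 reporter cells cultured 24 h beforehand; PTC124 at 50 uM final as control inhibitor; activity scaled vehicle 0%, zero RLU -100%.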

| Structure (SMILES) | activity change, positive = activation |
| --- | --- |
| CCc1nnc(SCC(=O)Nc2ccc(F)cc2F)c2cc3sc(C)cc3n12 | inactive: 3.1% |
| COc1ccc(Nc2cc(C(=O)NCc3ccccc3OC)c3ccccc3n2)cc1 | inactive: 1.48% |
| Cc1cc(OCC(=O)N(Cc2sccc2C)C2CCS(=O)(=O)C2)ccc1Cl (stereo not drawn) | inactive: -23% |
| COc1ccc(CNC(=O)CN2C(=O)c3cccnc3Oc3ccc(C)cc32)cc1 | inactive: -10.2% |
| Cc1cc(C)c2c(CC(=O)Nc3c(C(=O)Nc4ccc(Cl)cc4)oc4ccccc34)coc2c1 | inactive: 7.48% |
| CCc1cccc(C)c1NC(=O)CSc1nnc(CC)n2c1cc1occc12 | inactive: -34.4% |
| CCOC(=O)C1CCCN(c2nc3c(S(=O)(=O)c4ccc(C)c(C)c4)nnn3c3ccc(Cl)cc23)C1 (stereo not drawn) | inactive: 12.3% |
| CCn1c(=O)c2sccc2n2c(CCC(=O)Nc3cc(C)cc(C)c3)nnc12 | inactive: -4.85% |
| Cc1ccc(Cl)cc1N1CCN(c2ncnc3onc(C)c23)CC1 | inactive: -34.8% |
| COc1cccc(N2CCN(C(=O)C3CCN(S(=O)(=O)c4ccc5c(c4)oc(=O)n5C)CC3)CC2)c1 | inactive: -25.2% |
| COc1ccc2c(c1)CC(C(=O)NCCCN1CCN(c3ccc(F)cc3)CC1)CO2 (stereo not drawn) | inactive: -23.3% |
| COc1cccc(C(=O)Nc2cc3c(cc2C(=O)c2ccc(C)cc2)OCCO3)c1 | inactive: -7.42% |
| Cc1cc(C)c2c(CC(=O)N(Cc3ccccc3)C3CCS(=O)(=O)C3)coc2c1 (stereo not drawn) | inactive: -18.2% |
| CCC(=O)N1CCc2cc(Br)cc(S(=O)(=O)N3CCCC(C(=O)N(C)c4ccc(Br)cc4)C3)c21 (stereo not drawn) | inactive: -42% |
| Cn1c(=O)oc2cc(S(=O)(=O)Nc3ccc(C(=O)O)cc3)ccc21 | inactive: -3.69% |
| COc1ccccc1CNC(=O)c1ccc(-c2nc(CN3CCc4ccccc43)c(C)o2)cc1 | inactive: -36.6% |
| Cc1ccc(OCC(=O)Nc2ccc3nc(SCC(=O)N4CCc5ccccc54)sc3c2)cc1 | inactive: -13.5% |
| COc1ccc(NC(=O)c2cccn2-c2nnc(N3CCCCC3)s2)cc1 | inactive: 12.9% |
| Cn1cc(C(=O)N2CCN(c3cccc(C(F)(F)F)c3)CC2)c2c3ccccc3n(C)c2c1=O | inactive: -41.4% |
| CC(=O)Nc1ccc(NC(=O)Cn2nc(C(=O)Nc3ccc(C)cc3)ccc2=O)cc1 | inactive: -4.37% |
| O=C(O)CCn1cnc2onc(-c3cc(F)cc(F)c3)c2c1=O | inactive: 12.5% |
| CCCOc1ccc(Oc2nc(NCC(C)C)nc(N3CCOCC3)n2)nn1 | inactive: -12.5% |
| COc1ccccc1N1CCN(c2nc(-c3ccc(C)cc3)nc3ccccc23)CC1 | inactive: -19.8% |
| COc1cccc(NC(=O)C2CCCN(S(=O)(=O)c3ccc4[nH]c(=O)ccc4c3)C2)c1 (stereo not drawn) | inactive: -9.63% |

| Structure (SMILES) | activity change, positive = activation |
| --- | --- |
| CC(C)(C)NC(=O)[C@H]1CC[C@H]2[C@@H]3CC[C@H]4NC(=O)C=C[C@]4(C)[C@H]3CC[C@]12C | inactive |
| O=C(Nc1ccc(OCc2cc(=O)n3c4c(sc3n2)CCCC4)cc1)c1ccccc1 | inactive: -7.77% |
| CCOc1ccc(OCC)c(NS(=O)(=O)c2c(C(=O)N3CCC(C)CC3)c(C)n(C)c2C)c1 | inactive: -16.8% |
| CCOc1ccc(NC(=O)CN(c2ccc(Cl)cc2C)S(=O)(=O)c2ccccc2)cc1 | inactive: -24.1% |
| COc1ccc(N2CC(NC(=O)c3ccc4c(c3)OCO4)CC2=O)cc1 (stereo not drawn) | inactive: -1.6% |
| COc1ccc(NC(=O)CN(c2ccc(C)cc2)S(=O)(=O)c2cccc3nonc23)cc1OC | inactive: 9.38% |
| Cc1ccc(-n2c(SCC(=O)O)nc3sc4c(c3c2=O)CCCC4)cc1 | inactive: -8.84% |
| COc1cccc(-n2c(SCC(=O)c3ccc(Cl)cc3)nc3c([nH]c4ccccc43)c2=O)c1 | inactive: -54.1% |
| COC(=O)Cn1c(=O)c2c(nc3n2CCN3c2ccc(F)cc2)n(C)c1=O | inactive: -14.8% |
| CSc1ccc(CNC(=O)c2ccc(NC(=O)c3nsc4ccccc34)cc2)cc1 | inactive: -58.4% |
| O=C(NCc1ccccc1Cl)NCc1noc2ccccc12 | inactive: 22.9% |
| Cc1ccccc1NC(=O)Cn1c(=O)n(CC2CCC(C(=O)NCCc3ccccc3)CC2)c(=O)c2ccccc21 (stereo not drawn) | inactive: -7.46% |
| Cc1ccc(CNS(=O)(=O)c2ccc(-c3cc(C(F)(F)F)on3)s2)cc1 | inactive: -6.66% |
| Cc1ccc(N2C(=O)[C@@H]3CSC(c4ccc(F)cc4)N3C2=O)cc1 (stereo partly drawn) | inactive: -32.2% |
| COc1ccc(Cl)cc1NC(=O)Cn1c(=O)n(CCC(=O)NCc2ccc3c(c2)OCO3)c(=O)c2ccccc21 | inactive: -52.1% |
| O=C(Nc1ccc(Cl)c(-c2nc3cc(Cl)ccc3o2)c1)c1cc([N+](=O)[O-])ccc1N1CCOCC1 | inactive: -25.3% |
| COc1cc(NC(=O)COCc2cc(-c3ccc(F)cc3)on2)cc(OC)c1OC | inactive: -27.4% |
| Cc1nn(C(C)(C)C)c(OC(=O)C(C)(C)C)c1Sc1ccccc1 | inactive: -9.6% |
| CCOc1ccc(C(=O)c2c(N)c(-c3nc(-c4ccc5c(c4)OCO5)cs3)c3ccccn23)cc1 | inactive: 5.41% |
| COC(=O)Cn1c(=O)c2cccn2c2cccnc21 | inactive: -6.39% |
| Cc1ccsc1CN(C(=O)c1oc2cc(Br)ccc2c1C)C1CCS(=O)(=O)C1 (stereo not drawn) | inactive: -46.7% |
| Cc1cc(C(=O)Nc2ccc(C(C)C)cc2)c2c(C)nn(-c3ccccc3)c2n1 | inactive: 1.46% |
| COc1cccc(CNC(=O)CSc2c3c(nc4cc(Cl)ccc24)CCCC3)c1 | inactive: -30% |
| CN(C)CCCN(C(=O)c1ccc2c(c1)OCCO2)c1nc2ccccc2s1 | inactive: 25.5% |

| Structure (SMILES) | activity change, positive = activation |
| --- | --- |
| CCOc1ccccc1NC(=O)Cn1cc(C(=O)c2ccc(Cl)cc2)c(=O)c2ccc(C)nc21 | inactive: -10.4% |
| COc1ccc(Cn2c(=O)c3oc4ccccc4c3n(Cc3cccc(C)c3)c2=O)cc1 | inactive: -14.3% |
| COc1ccccc1CNc1ccc(-c2nc(-c3ccco3)no2)cc1[N+](=O)[O-] | inactive: 7.91% |
| Cc1cccc2c(=O)cc(CSc3ccccc3NC(=O)c3cccc(F)c3)[nH]c12 | inactive: -10.3% |
| CC(C)OC(=O)CCCC=CC[C@@H]1[C@H](C=C[C@@H](O)COc2cccc(C(F)(F)F)c2)[C@H](O)C[C@@H]1O | inactive: -33.9% |
| COc1ccc(NC(=O)Cn2cnc3c(oc4ccccc43)c2=O)cc1OC | inactive: 13.8% |
| CC(C)NC(=O)C1CCC(Cn2c(=O)c3sccc3n(CC(=O)NCc3ccccc3)c2=O)CC1 (stereo not drawn) | inactive: -9.6% |
| CCCOc1c(Cl)cc(C(=O)N(Cc2cccc(OC)c2)C2CCS(=O)(=O)C2)cc1Cl (stereo not drawn) | inactive: -11.1% |
| CCOc1ccc(NC(=O)c2cnc(N3CCCCC3)c3ccccc23)cc1 | inactive: -17.6% |
| CCOC(=O)c1c(-c2ccccc2)csc1NC(=O)c1cc(-c2ccc(F)cc2)on1 | inactive: -0.979% |
| O=C(NCc1ccc2c(c1)OCO2)c1ccc2c(c1)N(Cc1ccccc1)C(=O)c1ccccc1S2=O (stereo not drawn) | inactive: -12% |
| CC(C)n1cnc(S(=O)(=O)N2CCCC(C(=O)NCc3ccccc3Cl)C2)c1 (stereo not drawn) | inactive: -6.41% |
| CN(c1ccccc1)S(=O)(=O)c1nnc(NC(=O)c2ccccc2)s1 | inactive: -2.79% |
| Cc1ccc(C(=O)N(CCCN)[C@@H](c2oc3cc(Cl)ccc3c(=O)c2Cc2ccccc2)C(C)C)cc1 | inactive: -30.8% |
| COCCCNc1nc2cc(OC)c(OC)cc2c2nc(-c3ccccc3)nn12 | inactive: -9.91% |
| Cc1ccccc1N1CC(C(=O)Nc2ccc(Br)cc2)CC1=O (stereo not drawn) | inactive: -13.6% |
| COc1ccc(CNC(=O)CN2N=C(c3ccccc3)CCC2=O)c(OC)c1 | inactive: -7.84% |
| CCn1c(=O)c(=O)n(CC)c2cc(N3CCCCC3)c(NC(=O)c3ccc(Cl)cc3)cc21 | inactive: -4.94% |
| Cc1nnc(N2CCCC(C(=O)NCc3ccccc3F)C2)c2nn(-c3ccc(Cl)cc3)c(C)c12 (stereo not drawn) | inactive: -9.53% |
| COc1ccc(C(=O)NCc2nnc(SCC(=O)Nc3ccccc3)n2-c2ccccc2)cc1 | inactive: -7.46% |
| COc1cc(Cl)c(C)cc1NC(=O)c1ccc2c(SCC(=O)O)c3c(nc2c1)CCCC3 | inactive: -1.2% |
| O=C(CSc1n[nH]c(-c2ccccc2)n1)NCCCc1ccccc1 | inactive: -20.9% |
| Cc1ccc(-n2nnc(-c3nsc(NC(=O)c4cccc(Cl)c4)n3)c2C)cc1C | inactive: -16.5% |
| CC(C)CCNC(=O)c1ccc2c(c1)N(Cc1cccc(Cl)c1)C(=O)c1ccccc1S2 | inactive: -26.4% |

| Structure (SMILES) | activity change, positive = activation |
| --- | --- |
| CCCC(=O)n1nc(-c2ccco2)nc1NCc1ccccc1Cl | inactive: 21.5% |
| Cc1cc2nn(-c3ccc(F)cc3)nc2cc1NC(=O)c1cccc2ccccc12 | inactive: 6.66% |
| O=C(Nc1nnc(S(=O)(=O)N2CCOCC2)s1)c1ccccc1Cl | inactive: -14.5% |
| Nc1nc(N)c2nc(-c3ccccc3)c(N)nc2n1 | inactive: 18.4% |
| CC(=O)Nc1ccc(NC(=O)C2CCCN2S(=O)(=O)c2ccc3c(c2)CCCC(=O)N3)cc1 (stereo not drawn) | inactive: 5.19% |
| COc1ccc(OC)c(CCNC(=O)c2cc3c(=O)oc4ccc(C)cc4c3s2)c1 | inactive: -0.427% |
| O=C(Nc1ccc2nc(SCc3ccccc3)sc2c1)c1ccccc1F | inactive: -14.4% |
| O=C(Nc1ccc(F)c(Cl)c1)c1cc(S(=O)(=O)N2CCc3ccccc3C2)ccc1F | inactive: -21.1% |
| Cc1ccc(OCC(=O)Nc2ccc3c(c2)nc(CCNC(=O)c2ccco2)n3C)cc1 | inactive: -13.5% |
| COc1ccc(N2CCN(C(=O)CN3C(=O)CSc4c3c(C)nn4-c3ccccc3)CC2)cc1 | inactive: -4.6% |
| O=C(Nc1ccc2oc(-c3cccnc3)nc2c1)c1ccc(-c2ccc(OC(F)(F)F)cc2)o1 | inactive: -10.8% |
| CCOc1cccc(CC(=O)N2CCc3c([nH]c4ccccc34)C2c2ccccc2)c1OCC (stereo not drawn) | inactive: -30.7% |
| CCC1CCCCN1CCCNC(=O)c1ccc2c(c1)N(Cc1ccccc1)C(=O)c1ccccc1S2(=O)=O (stereo not drawn) | inactive: -11.2% |
| CCn1nc(C)c2c(-c3ccccc3)cc(=O)n(C(C)C(=O)NCc3cccc(OC)c3)c21 (stereo not drawn) | inactive: -14% |
| CCN(CC)c1ccc(CN(C(=O)Cc2coc3ccc(C)cc23)C2CCS(=O)(=O)C2)cc1 (stereo not drawn) | inactive: -28.4% |
| CCc1ccc(OCCCn2c(-c3ccc(Cl)cc3)nc3ccccc3c2=O)cc1 | inactive: -15% |
| Cc1ccc(-c2nc3scc(CCNS(=O)(=O)c4ccc(F)c(C)c4)n3n2)cc1 | inactive: -26.4% |
| Cc1ccc(Cl)cc1NC(=O)CSc1ccc(C(=O)O)cn1 | inactive: 15.8% |
| CCN(CC)c1ccc(NC(=O)c2cc(C)nc3c2c(C)nn3-c2cccc(F)c2)c(C)c1 | inactive: -13.1% |
| c1ccc(-c2nnc(CN3CCN(c4ccccn4)CC3)o2)cc1 | inactive: 0.258% |
| Cc1ccc(OCC(=O)OCc2cc(=O)n3nc(C4CCCCC4)sc3n2)cc1C | inactive: -6.6% |
